PubChem BioAssay AID686978 (National Center for Advancing Translational Sciences (NCATS), 2013)
Screen size: about 420,000 compounds; about 64,000 (15%) were called active. The inconclusive results got no clear call from the source; some entries with a clear call stand among them for comparison. The call rests on the fitted dose curve; in most records, active means well fitted inhibition curve with a large enough effect; inconclusive means small, poorly fitted or top-dose-only effect; inactive means flat fitted curve, though single readings scatter. No potency is given beside an inconclusive call; the fits are too rough.

Test: qHTS for Inhibitors of human tyrosyl-DNA phosphodiesterase 1 (TDP1): qHTS in cells in absence of CPT; further: nearly all actives have a fitted effect of over 55% in size
Details: DT40 Tdp1-/- hTDP1 cells, no CPT, ATP luminescence, 48 h; activity change, negative = growth inhibition: at 46.2 µM (top of the series)
How it was run: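 Seeded 400 DT40-hTDP1 cells/well (vehicle DMSO, no 20 nM CPT); pinned compounds; ≥48 hr at 37 °C; CellTiter-Glo luminescence as viability measure.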
On the % scale 0 is the no-effect control and ±100 the full control effect; potency means the concentration at half of the fitted maximal effect; tags describe the fitted curve by direction and shape.

Row | SMILES | Potency | activity change, negative = growth inhibition
1 | O=c1[nH]nc(Cc2ccc(-c3ccc(Cl)cc3)o2)c2ccccc12 | inconclusive [inhibitor, partial curve] | –
2 | CCCN1CCc2nc(N3CCN(CC)CC3)ncc2C1 | inactive | –
3 | Cc1ccc(OCCn2c(CNc3cccc(C)c3)nc3ccccc32)cc1 | inconclusive [inhibitor, single point] | –
4 | COc1ccccc1NC(=O)c1ccc(NC(=O)CNC(=O)c2ccc(OC)c(OC)c2)cc1 | inconclusive [inhibitor, single point] | –
5 | CCOc1cccc(C(=O)Nc2c(C(=O)c3ccc(OC)cc3)oc3ccccc23)c1 | inactive | –
6 | CNC(=O)COc1ncnc2scc(-c3ccc(F)cc3)c12 | inactive | –
7 | CC1=NN(c2nc(N)nc(/C(C#N)=C/c3ccc([N+](=O)[O-])o3)n2)C(C)(C)C1 | active: 0.461 µM | –
8 | CCNC(=O)C1CCCN(C(=O)c2cc(C)oc2C)CC1 (stereo unspecified) | inactive | –
9 | O=C(CNC(=O)c1ccc(Br)o1)NC12CC3CC(CC(C3)C1)C2 | inactive | –
10 | CCN(CC)C(=O)c1sc(NC(=O)c2ccc(Br)o2)c(C(=O)OC)c1C | inconclusive [inhibitor, partial curve] | –
11 | Cc1cccc(OCC(=O)Nc2cc(C)c(C)cc2O)c1 | inactive | –
12 | CCCNC(=O)c1ccc2c(=O)c(O)c(-c3cccc(Br)c3)[nH]c2c1 | inconclusive [inhibitor, single point] | –
13 | OCCN1CCN(c2ncnc3sc4c(c23)CCCC4)CC1 | inconclusive [inhibitor, single point] | –
14 | CCCCNC(=O)c1c(N)[nH]c(C(=O)c2ccccc2)c1-c1ccccn1 | inconclusive [inhibitor, single point] | –
15 | Cc1cccc(N2CCN(C(=O)CCCn3c(=O)[nH]c4ccsc4c3=O)CC2C)c1 (stereo unspecified) | active: 25.9 µM | –
16 | CS(=O)(=O)NCC(c1ccco1)N1CCN(c2ccccc2)CC1 (stereo unspecified) | inactive | –
17 | CCOc1cc(S(=O)(=O)NCCc2cccc(C)c2)c(OCC)cc1-n1cnnn1 | inactive | –
18 | CCCCOC(=O)c1ccc(NC(=O)c2cc(-c3ccccc3)on2)cc1 | inactive | –
19 | COc1ccc(N2Cc3cccc(C(=O)Nc4ccc(C(C)C)cc4)c3C2=O)cc1 | inactive | –
20 | CCNC(=O)CC1SC(=Nc2ccc(C)c([N+](=O)[O-])c2)N(C)C1=O (stereo unspecified) | inconclusive [inhibitor, single point] | –
21 | COc1ccc(-c2cc3c(=O)n(CC(=O)NCCCN4CCC(Cc5ccccc5)CC4)ncn3n2)cc1 | inconclusive [inhibitor, partial curve] | –
22 | O=C(Cn1c(=O)[nH]c2ccsc2c1=O)N1CCN(c2ccc(F)cc2)CC1 | inconclusive [inhibitor, single point] | –
23 | CS(=O)(=O)Nc1cccc(-c2nc(NCc3cccs3)c3ccccc3n2)c1 | inconclusive [inhibitor, single point] | –
24 | Cc1c(C(=O)N2CCC(C)CC2)cccc1[N+](=O)[O-] | inactive | –
25 | Cc1cccc(N(C(=O)c2snc(C(N)=O)c2N)C(C(=O)NCC2CCCO2)c2ccc(N(C)C)cc2)c1C (stereo unspecified) | inconclusive [inhibitor, single point] | –
26 | Cc1ccc(F)cc1NC(=O)C1CCN(c2cnccn2)CC1 | inactive | –

Row | SMILES | Potency | activity change, negative = growth inhibition
27 | O=C(c1ccccc1NS(=O)(=O)c1ccc(F)cc1F)N1CCCCC1 | inactive | –
28 | COc1ccccc1CCNC(=O)CSc1nnc2ccc(-c3ccncc3)nn12 | inactive | –
29 | COc1c(Cl)cccc1-c1cn2ccccc2n1 | inconclusive [inhibitor, partial curve] | –
30 | CCn1c2ccc(F)cc2c2nnc(SCCN3CCOCC3)nc21 | inconclusive [inhibitor, partial curve, poor fit] | –
31 | O=C(NCCCNC(=O)NC1CCCCC1)NC1CCCCC1 | inactive | –
32 | Cc1cccc(-n2c(C)cc(C=C3C(=O)c4ccccc4C3=O)c2C)c1 | active: 12.6 µM | –
33 | COc1ccc(OC)c(NC(=O)/C=C/c2ccc(S(=O)(=O)N3CCOCC3)cc2)c1 | inconclusive [inhibitor, single point] | –
34 | O=C(CN1C(=O)NC(c2ccccc2)(c2ccccc2)C1=O)N1CCOCC1 | inactive | –
35 | O=C(CN(c1ccc(Cl)c(C(F)(F)F)c1)S(=O)(=O)c1ccccc1)N1CCc2ccccc2C1 | active: 16.4 µM | –
36 | COc1ccc(C(=NN)c2ccc(OC)cc2)cc1 | inactive | –
37 | Cc1ccc(S(=O)(=O)N2[C@@H](c3ccc4c(c3)OCO4)C(C(=O)O)=C[C@H]2C(C)(C)C)cc1 | inactive | –
38 | COc1ccc(C(=O)CC(=O)Nc2ccc([N+](=O)[O-])cc2)cc1 | inconclusive [inhibitor, partial curve, poor fit] | –
39 | Cc1ccsc1C(=O)N(Cc1nnc(-c2ccccc2Cl)o1)C1CC1 | inconclusive [inhibitor, single point] | –
40 | CC(C)N(c1ccccc1)c1ccc(NC(=O)CCl)cc1 | active: 2.59 µM | –
41 | Cc1ccc(/C=C(\C#N)C(=O)Nc2ccccn2)o1 | inactive | –
42 | CCOc1ccccc1/C=N/NC(=O)C[n+]1ccccc1 | inactive | –
43 | COc1cccc(C(C)=NNc2ccc([N+](=O)[O-])cc2[N+](=O)[O-])c1OC | active: 20.6 µM | –
44 | CNc1ncnc2ccc(-c3cccc(OC)c3)cc12 | active: 23.1 µM | –
45 | CC1CCCC(NC(=O)C2CCN(S(=O)(=O)N3CCCCCC3)CC2)C1C (stereo unspecified) | active: 23.1 µM | –
46 | CSc1ccccc1NC(=O)CSCc1nc2sc(C)c(C)c2c(=O)[nH]1 | inconclusive [inhibitor, single point] | –
47 | COc1ccc(-c2ccc(C(=O)O)c(=O)[nH]2)cc1 | inconclusive [inhibitor, full curve] | –
48 | Cc1ccc(NC(=O)c2sc(-n3nc(C)c(CCC(C)C)c3C)nc2C)cc1C | inconclusive [inhibitor, single point] | –
49 | COc1ccc(C(=O)N2CCc3ccccc3C2)cc1S(=O)(=O)N1CCCC1 | inconclusive [inhibitor, single point] | –
50 | COc1cccc(C2c3c(oc4ccccc4c3=O)C(=O)N2Cc2ccco2)c1 (stereo unspecified) | inactive | –
51 | Cc1nc2ccn(Cc3cccs3)c(=O)c2cc1C(=O)N1CCN(c2ccc(F)cc2)CC1 | inconclusive [inhibitor, single point] | –
52 | Cn1cccc1CC(=O)N/N=C/c1ccc(Cl)cc1 | – | inconclusive: -34.6% [inhibitor]

Row | SMILES | Potency | activity change, negative = growth inhibition
53 | CN(C(=O)CC(NC(=O)c1ccccc1)(c1ccccc1)c1ccccc1)c1ccccc1 | inconclusive [inhibitor, single point] | –
54 | COC(=O)c1ccc(-c2ccc(CNCC(O)c3ccccc3)o2)cc1 (stereo unspecified) | inconclusive [inhibitor, single point] | –
55 | Cc1cccn2cc(-c3ccc(F)cc3)nc12 | – | inconclusive: -31% [inhibitor]
56 | CC(=O)NCCc1ccc(S(=O)(=O)Nc2cccnc2)cc1 | inactive | –
57 | COc1ccc(NC(=O)CC2C(=O)N(c3ccc(Cl)cc3)C(=S)N2CCc2ccccn2)cc1 (stereo unspecified) | inconclusive [inhibitor, single point] | –
58 | O=C(CN1C(=O)S/C(=C/c2ccncc2)C1=O)Nc1ccccc1 | inconclusive [inhibitor, single point] | –
59 | CCOC(=O)N1CCN(S(=O)(=O)c2ccc3c(c2)CC(C)N3C(C)=O)CC1 (stereo unspecified) | inconclusive [inhibitor, partial curve, poor fit] | –
60 | C1=C(c2cc3ccccc3cn2)CCCC1 | inactive | –
61 | O=C(Nc1ccon1)c1cccc(S(=O)(=O)N2CCCCCC2)c1 | inconclusive [inhibitor, partial curve] | –
62 | COc1ccc(N(CC(=O)Nc2ccc(C)cn2)S(=O)(=O)c2c(C)nn(C)c2C)cc1 | inactive | –
63 | CCCCNC(=O)c1cccc2c(=O)c(C)c(-c3ccccc3)oc12 | inconclusive [inhibitor, partial curve] | –
64 | Cc1ccc2nc(-c3cccnc3)cc(C(=O)N3CCN(c4ccc([N+](=O)[O-])cc4)CC3)c2c1 | active: 18.4 µM | –
65 | CC(C)(C)C1CCC(C(=O)NCC(c2cccs2)N2CCOCC2)CC1 (stereo unspecified) | active: 8.2 µM | –
66 | O=[N+]([O-])c1cc(S(=O)(=O)Nc2cccc(C(F)(F)F)c2)ccc1-n1nnc2ccccc21 | inconclusive [inhibitor, single point] | –
67 | Cc1cccc(CSc2ncc(CO)n2Cc2ccc(F)cc2)c1 | active: 16.4 µM | –
68 | COc1cc(Br)c(CCNC(=O)c2ccco2)cc1OC | inactive | –
69 | O=C1c2cccc3c(N4CCCCC4)ccc(c23)C(=O)N1c1ccc(O)cc1 | active: 23.1 µM | –
70 | O=C(Nc1ccc2oc(-c3ccccc3F)nc2c1)c1ccccc1Cl | active: 13 µM | –
71 | CC(C)N1CCOC1c1ccccc1 (stereo unspecified) | inconclusive [inhibitor, single point] | –
72 | COc1ccc(C(CC(=O)Nc2cc(OC)cc(OC)c2)n2cccc2)cc1 (stereo unspecified) | inconclusive [inhibitor, single point] | –
73 | COc1ccccc1N1CCN(C(=O)c2sc3ncnc(N4CCN(c5ccccn5)CC4)c3c2C)CC1 | active: 4.61 µM | –
74 | CCN1C(=O)C(=O)N(Cc2ccc(OC)c(F)c2)C1=O | inconclusive [inhibitor, partial curve, poor fit] | –
75 | O=C(Nc1ccc2nc(-c3ccc4nc[nH]c4c3)[nH]c2c1)c1cccs1 | inconclusive [inhibitor, single point] | –
76 | COc1ccc(NC(=O)CSc2ncc3c(n2)-c2cc(Cl)ccc2N(Cc2ccccc2F)S3(=O)=O)cc1 | inconclusive [inhibitor, partial curve] | –
